Source: a collection of fitness landscapes (doi:10.1126/science.1257360)
The list shows a part of the results.

B1: PhoQ; a variant is named by its letters at X, in order, P23837 (parent)
chain: MKKLLRLFFPLSLRVRFLLATAAVVLVLSLAYGMVALIGYSVSFDKTTFRLLRGESNLFYTLAKWENNKLHVELPENIDKQSPTMTLIYDENGQLLWAQRDVPWLMKMIQPDWLKSNGFHEIEADVNDTSLLLSGDHSIQQQLQEVREDDDDAEMTHSVAVNVYPATSRMPKLTIVVVDTIPVELKSSYMVWSWFIYVLSANLLLVIPLLWVAAWWSLRPIEALAKEVRELEEHNRELLNPATTRELTSLVRNLNRLLKSERERYDKYRTTLTDLTHSLKTPLXXLQXXLRSLRSEKMSVSDAEPVMLEQISRISQQIGYYLHRASMRGGTLLSRELHPVAPLLDNLTSALNKVYQRKGVNISLDISPEISFVGEQNDFVEVMGNVLDNACKYCLEFVEISARQTDEHLYIVVEDDGPGIPLSKREVIFDRGQRVDTLRPGQGVGLAVAREITEQYEGKIVAGESMLGGARMEVIFGRQHSAPKDE

Variants of: B1
Assay: enrichment ratio after two sorts for PhoP signalling (ratio (wild type AVST 3.29)); higher = more functional
Conditions: with PhoP (E. coli)

Variant	enrichment ratio
TLWM	≤ 0.25
PAEN	≤ 0.25
QNCY	≤ 0.25
PCVW	≤ 0.25
HDGP	≤ 0.25
NEHA	≤ 0.25
PRTR	≤ 0.25
AECI	4.88
RNLN	≤ 0.25
HAVV	≤ 0.25
PIGD	≤ 0.25
YADK	≤ 0.25
QHLR	≤ 0.25
EMAN	≤ 0.25
WKHI	≤ 0.25
VKLM	4.07
SLSS	6.86
QSHA	≤ 0.25
AANY	≤ 0.25
RATK	≤ 0.25
INNT	≤ 0.25
TESC	13.3
TYAV	0.611
NYCY	≤ 0.25

Variant	enrichment ratio
GSCY	1.12
LFIW	≤ 0.25
IGFL	≤ 0.25
NSKY	≤ 0.25
FYWP	≤ 0.25
AYNR	≤ 0.25
KIFD	≤ 0.25
KLNT	≤ 0.25
RHFR	≤ 0.25
NHTD	≤ 0.25
NLGE	≤ 0.25
YTVI	≤ 0.25
TWHI	≤ 0.25
HEGN	≤ 0.25
TVSS	11.6
QNLQ	≤ 0.25
IPLD	≤ 0.25
SPLE	≤ 0.25
KRVT	≤ 0.25
AIQS	≤ 0.25
TFDW	≤ 0.25
SSEN	≤ 0.25
STIT	2.03
WKRH	≤ 0.25

Variant	enrichment ratio
ETND	≤ 0.25
DNAE	≤ 0.25
AAIQ	10.8
KMHN	≤ 0.25
IKMA	≤ 0.25
VSDE	≤ 0.25
VRCH	≤ 0.25
VRDD	≤ 0.25
TVNH	9.25
QHAM	≤ 0.25
LNDD	≤ 0.25
CHLF	≤ 0.25
AEEV	2.19
SWYL	≤ 0.25
AELD	11.4
SHCG	16.6
DDGS	≤ 0.25
YHCR	≤ 0.25
MPSW	≤ 0.25
DHIV	≤ 0.25
IEMG	2.66
RWVQ	≤ 0.25
IKDS	≤ 0.25
DVRH	≤ 0.25

Variant	enrichment ratio
FLSH	≤ 0.25
TCYW	≤ 0.25
YYKV	≤ 0.25
RDGR	≤ 0.25
HDAP	≤ 0.25
NHPF	≤ 0.25
NQYP	≤ 0.25
ILSA	≤ 0.25
IIGR	≤ 0.25
GVSK	≤ 0.25
FKEP	≤ 0.25
IQAT	≤ 0.25
SAMI	8.6
LNTA	≤ 0.25
RQRQ	≤ 0.25
VDPW	≤ 0.25
DISW	≤ 0.25
VGRS	≤ 0.25
SNIP	≤ 0.25
YKKY	≤ 0.25
LDNP	≤ 0.25
MDMR	≤ 0.25
ASTV	12.1
YLTF	0.333

Variant	enrichment ratio
GYDG	≤ 0.25
SHRW	≤ 0.25
TNHS	≤ 0.25
PTHI	≤ 0.25
DDQQ	≤ 0.25
TEHW	≤ 0.25
QLVA	≤ 0.25
MEAL	8.16
YWFH	≤ 0.25
EIDS	≤ 0.25
MSKE	≤ 0.25
INFW	≤ 0.25
GFQM	≤ 0.25
FQWT	≤ 0.25
MQMN	≤ 0.25
TLKY	≤ 0.25
WGHF	≤ 0.25
HQIR	≤ 0.25
HHNR	≤ 0.25
TRMS	≤ 0.25
PETW	≤ 0.25
FVMW	≤ 0.25
HERS	≤ 0.25
GNNV	≤ 0.25

Variant	enrichment ratio
YMFM	≤ 0.25
CSEF	≤ 0.25
MDQP	≤ 0.25
DNYY	≤ 0.25
VPIH	≤ 0.25
WHCP	≤ 0.25
CVMF	≤ 0.25
GEAP	≤ 0.25
LILN	≤ 0.25
TMHH	2.05
IWVP	≤ 0.25
HMPN	≤ 0.25
AMYR	≤ 0.25
IQVA	≤ 0.25
NHHM	≤ 0.25
MKVS	≤ 0.25
MGMY	≤ 0.25
FPQP	≤ 0.25
IFEG	≤ 0.25
RGWG	3.27
TAAD	≤ 0.25
RVCG	≤ 0.25
QHVM	≤ 0.25
MCWH	2.69

Variant	enrichment ratio
VTAF	0.371
LYGY	≤ 0.25
HQKI	≤ 0.25
MALA	3.7
VVGS	≤ 0.25
PNHP	≤ 0.25
YVMG	≤ 0.25
LRSK	≤ 0.25
RLCV	≤ 0.25
HWRK	≤ 0.25
WGHP	≤ 0.25
KIHR	≤ 0.25
HWNS	≤ 0.25
VGDS	≤ 0.25
YCDF	≤ 0.25
SAQE	≤ 0.25
VAKD	≤ 0.25
MADN	≤ 0.25
IYIW	≤ 0.25
TDVA	≤ 0.25
SYDP	≤ 0.25
HEID	≤ 0.25
WQPH	≤ 0.25
YQCQ	≤ 0.25

Variant	enrichment ratio
CTSI	19.6
AADS	≤ 0.25
VPHI	≤ 0.25
HNKN	≤ 0.25
FANK	≤ 0.25
FIRA	1.05
LAQS	≤ 0.25
SRGS	≤ 0.25
QKSI	6.62
WYVM	≤ 0.25
IQEW	≤ 0.25
NYMA	≤ 0.25
LGGI	≤ 0.25
KTVL	≤ 0.25
RQRV	≤ 0.25
RNVA	≤ 0.25
QQLH	≤ 0.25
WEMR	≤ 0.25
EHKD	≤ 0.25
SLRY	≤ 0.25
QGGS	14.5
TCKR	≤ 0.25
SYLK	≤ 0.25
HHLV	≤ 0.25

Variant	enrichment ratio
STSF	10.3
ILYN	≤ 0.25
TGTG	9.33
DRGF	≤ 0.25
TVEG	≤ 0.25
VMCV	≤ 0.25
WALF	≤ 0.25
DYGH	≤ 0.25
LHTY	≤ 0.25
HSFM	≤ 0.25
IARQ	≤ 0.25
TQVV	4.23
RIGR	≤ 0.25
ERPL	≤ 0.25
YDCY	≤ 0.25
FGPQ	≤ 0.25
MSVP	≤ 0.25
VYKA	≤ 0.25
HECA	≤ 0.25
YAVP	≤ 0.25
MQFR	≤ 0.25
REPR	≤ 0.25
NCQK	≤ 0.25
KKPS	1.58

Variant	enrichment ratio
YNVQ	≤ 0.25
DWIW	≤ 0.25
YRLN	≤ 0.25
KVRR	≤ 0.25
HWME	≤ 0.25
LQAT	≤ 0.25
EPMD	≤ 0.25
IAVC	≤ 0.25
WKRM	≤ 0.25
IDPD	≤ 0.25
DKQI	≤ 0.25
YGTM	≤ 0.25
HDCQ	≤ 0.25
ICRK	≤ 0.25
MHTD	≤ 0.25
SNWN	≤ 0.25
VFYR	≤ 0.25
IIVN	≤ 0.25
LYAH	≤ 0.25
MFYP	1.9
VGER	≤ 0.25
YSIL	1.87
SSLC	15.2
QYAN	≤ 0.25

Variant	enrichment ratio
PNIT	≤ 0.25
VECQ	8.23
RAEI	≤ 0.25
TMPQ	≤ 0.25
HMVF	≤ 0.25
FQKV	≤ 0.25
FEKD	≤ 0.25
IHYW	≤ 0.25
PFGK	≤ 0.25
QGRI	≤ 0.25
EYLT	≤ 0.25
VDSN	≤ 0.25
ITEP	≤ 0.25
MMWE	≤ 0.25
GQTS	≤ 0.25
QFFL	≤ 0.25
DSEP	≤ 0.25
IVSL	≤ 0.25
TEYY	10.3
IRML	≤ 0.25
LIWY	≤ 0.25
IFPY	≤ 0.25
ILWI	≤ 0.25
PFRK	≤ 0.25

Variant	enrichment ratio
YFVK	≤ 0.25
MSFC	14.1
AFLW	≤ 0.25
VFVD	≤ 0.25
VMVN	≤ 0.25
ESWG	≤ 0.25
SALD	2.76
HDDL	≤ 0.25
VAWM	≤ 0.25
INCP	≤ 0.25
MIFM	15.8
VARW	≤ 0.25
YYPM	≤ 0.25
MSPA	≤ 0.25
APIS	≤ 0.25
MWNV	≤ 0.25
DWHM	≤ 0.25
ANPR	≤ 0.25
TSGI	12.8
LKAM	≤ 0.25
YDCA	≤ 0.25
SDCE	≤ 0.25
MHHG	≤ 0.25
ITMN	≤ 0.25

Variant	enrichment ratio
FRAD	≤ 0.25
PPVH	≤ 0.25
PCAT	≤ 0.25
EGPD	≤ 0.25
EQIT	≤ 0.25
DWHN	≤ 0.25
VDCT	≤ 0.25
MFTF	0.689
AGSR	≤ 0.25
PLGM	≤ 0.25
CPIL	≤ 0.25
IVKM	≤ 0.25
DAVF	≤ 0.25
QHYI	≤ 0.25
NIMK	≤ 0.25
KINK	≤ 0.25
RNHK	≤ 0.25
ELTI	≤ 0.25
